Over roughly 18,000 sequences, “TetR repression strength (sort-seq, GFP reporter)” has its median near 0.23; the highest 2% begin near 0.68. The list shows a part of the results.

For the assay, the target named is TetR (class B, Tn10) (UniProt P04483). The assay can be described thus: TetR repression strength (sort-seq, GFP reporter) (relative to tetO2 = 1); higher = stronger repression. The following applies: E. coli. A digest of the protocol: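 Three independent transformations of E. coli SIG10-MAX were made with a low-copy plasmid library randomizing eight operator positions between a constitutive promoter and sfGFP, with constitutive TetR. Following 5 h at 37 °C in LB plus 50 µg/mL chloramphenicol, 10^6 cells went through FACS into 13 fluorescence bins, and each bin was sequenced by Illumina. Repression strength was defined as the top bin index plus one minus the read-weighted mean bin, divided by the unaltered operator's value. Averages included only members reaching ≥30 reads in all replicates with a CV ≤0.5.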
Sequence of UniProt P04483 (P04483 whole entry): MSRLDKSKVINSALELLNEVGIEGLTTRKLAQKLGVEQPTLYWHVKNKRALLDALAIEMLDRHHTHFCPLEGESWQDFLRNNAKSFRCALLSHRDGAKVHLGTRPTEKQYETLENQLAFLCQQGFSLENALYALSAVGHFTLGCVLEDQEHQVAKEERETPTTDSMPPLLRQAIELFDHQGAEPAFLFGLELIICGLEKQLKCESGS
In the case of TCCCACCGAGTTCTGGAGA, the TetR repression strength is 0.253.
The result for TCCCAAGGAGTGCGAGAGA reads 0.0159; that for TCCCTACGAGTTGACGAGA, 0.217; that for TCCCGCCCAGTCGAGGAGA, 0.196.
As to TCCCTTACAGTTATTGAGA, the TetR repression strength turned out to be 0.159.
The figure for TCCCCAAGAGTCGGTGAGA is 0.171; for TCCCGCGCAGTGTGGGAGA it is 0.144; for TCCCATTGAGTGACGGAGA it is 0.501.
For the sequence TCCCACGTAGTCTTAGAGA, the TetR repression strength was determined as 0.334.
The result for TCCCTGGGAGTTGCAGAGA reads 0.393.
The sequence TCCCTTTAAGTCGTTGAGA had a TetR repression strength of 0.234.
The figure for TCCCTGTAAGTCATAGAGA is 0.392; for TCCCTCACAGTAGGGGAGA it is 0.0553; for TCCCCTGCAGTGGCAGAGA it is 0.352.
The figure for TCCCATAAAGTCGAGGAGA is 0.277.
The figure for TCCCTGACAGTGAATGAGA is 0.175.
Turning to TCCCGGCCAGTGATTGAGA, the TetR repression strength came out at 0.455.
The figure for TCCCTTCTAGTTGTGGAGA is 0.484; for TCCCGCGTAGTCTGGGAGA it is 0.359.
The figure for TCCCCGGGAGTTGCCGAGA is 0.332; for TCCCTGGGAGTTTTGGAGA it is 0.508.
The figure for TCCCGGATAGTGCGCGAGA is 0.129; for TCCCACCGAGTTAACGAGA it is 0.559.
Sequence TCCCATATAGTAGGCGAGA came in with a TetR repression strength of 0.204.
The figure for TCCCTGTAAGTGGGGGAGA is 0.17; for TCCCGGCAAGTTGGCGAGA it is 0.0984; for TCCCGATTAGTAGCGGAGA it is 0.0756.
In turn, TCCCCGGTAGTGATGGAGA came in with a TetR repression strength of 0.189.
The figure for TCCCTTTTAGTTATAGAGA is 0.231.
The figure for TCCCGAGTAGTCGGGGAGA is 0.311.
The figure for TCCCACGAAGTTGCAGAGA is 0.207.
As to TCCCAGGGAGTGGGGGAGA, the TetR repression strength came to 0.288.
TCCCCTGAAGTGCCAGAGA came in with a TetR repression strength of 0.546.
TCCCCAGCAGTCATCGAGA came in with a TetR repression strength of 0.127.
The result for TCCCCTTAAGTTTAGGAGA reads 0.151; that for TCCCGAGGAGTGTCGGAGA, 0.246.
The result for TCCCCAAGAGTATTGGAGA reads 0.218; that for TCCCTTACAGTAAGGGAGA, 0.208.
TCCCGTGGAGTGTGTGAGA: the TetR repression strength was 0.215.
The result for TCCCCTAAAGTTGTCGAGA reads 0.518; that for TCCCCTCGAGTTGCGGAGA, 0.144.
The figure for TCCCGAAAAGTAAAGGAGA is 0.348.
The figure for TCCCTGTTAGTTGCGGAGA is 0.312; for TCCCGAGTAGTACGAGAGA it is 0.309.
Take TCCCCTGAAGTGATAGAGA: the TetR repression strength is 0.484.
The figure for TCCCAGTGAGTCGCAGAGA is 0.0941.
The figure for TCCCGTCGAGTGTAGGAGA is 0.321; for TCCCGGGGAGTTCACGAGA it is 0.182; for TCCCTCGGAGTGCGGGAGA it is 0.249.
The figure for TCCCGGGTAGTGCTGGAGA is 0.152; for TCCCGACGAGTGAGCGAGA it is 0.186; for TCCCTTAAAGTTTGAGAGA it is 0.0942.
For the sequence TCCCCACGAGTGACCGAGA, the TetR repression strength was determined as 0.104.
The figure for TCCCGTTGAGTGGGGGAGA is 0.195; for TCCCGGAAAGTCAAGGAGA it is 0.547; for TCCCACTAAGTGGCGGAGA it is 0.162.
In turn, TCCCGGGCAGTAATGGAGA had a TetR repression strength of 0.37.
The figure for TCCCGCAGAGTTTCGGAGA is 0.148; for TCCCCCCCAGTACGCGAGA it is 0.0399; for TCCCGCCTAGTTAGAGAGA it is 0.309.
The figure for TCCCGCGTAGTGGGAGAGA is 0.178.
The result for TCCCTGGTAGTGGTCGAGA reads 0.174; that for TCCCAACAAGTAGAGGAGA, 0.206.
For TCCCGTTGAGTGGGAGAGA, the TetR repression strength stood at 0.25.
For the sequence TCCCTGAGAGTCGGCGAGA, the TetR repression strength came to 0.192.
TCCCATGCAGTGATGGAGA returned a TetR repression strength of 0.191.
The figure for TCCCCTATAGTACTTGAGA is 0.255; for TCCCCGCGAGTGCACGAGA it is 0.407.
The figure for TCCCGGTTAGTGCCTGAGA is 0.242; for TCCCAGCCAGTCGGGGAGA it is 0.184; for TCCCATTAAGTTCAGGAGA it is 0.533.
The result for TCCCGTTGAGTTACGGAGA reads 0.166; that for TCCCCGGCAGTAAGCGAGA, 0.399.
TCCCGCGGAGTCTGTGAGA: the TetR repression strength turned out to be 0.32.
The result for TCCCAATCAGTGAGTGAGA reads 0.701; that for TCCCCGAGAGTAGGGGAGA, 0.202.
The figure for TCCCAGGGAGTAGTAGAGA is 0.344.
The result for TCCCTAAAAGTGTAGGAGA reads 0.131.
Sequence TCCCTTAAAGTGTAGGAGA had a TetR repression strength of 0.0265.
The figure for TCCCATTAAGTAGTTGAGA is 0.165; for TCCCGGGGAGTCAATGAGA it is 0.112; for TCCCGGGTAGTCAAAGAGA it is 0.31.
The figure for TCCCTCGAAGTAGAAGAGA is 0.297; for TCCCATCTAGTATCGGAGA it is 0.908.
The sequence TCCCCTCTAGTGCGAGAGA yielded a TetR repression strength of 0.481.
The result for TCCCGGACAGTCGGTGAGA reads 0.148; that for TCCCACGTAGTTTACGAGA, 0.203.
The result for TCCCAATCAGTACATGAGA reads 0.281.
Consider TCCCGACAAGTTGCCGAGA, for which the TetR repression strength was 0.258.
In turn, TCCCGGAGAGTGCCTGAGA yielded a TetR repression strength of 0.184.
The figure for TCCCTGCGAGTGCCAGAGA is 0.218.
TCCCTTCCAGTGGCGGAGA registered a TetR repression strength of 0.341.
The figure for TCCCATCAAGTGATCGAGA is 0.231; for TCCCTGCGAGTTCGTGAGA it is 0.297; for TCCCCGCAAGTCCCGGAGA it is 0.123.
The result for TCCCTAGTAGTGGCTGAGA reads 0.905; that for TCCCGTCAAGTAAACGAGA, 0.227.
The figure for TCCCGGCCAGTATCGGAGA is 0.149.
Turning to TCCCGTGCAGTGGTGGAGA, the TetR repression strength came out at 0.16.
The result for TCCCCTTTAGTGCCAGAGA reads 0.583; that for TCCCGATTAGTGTAGGAGA, 0.213.
Take TCCCCCGTAGTTGCCGAGA: the TetR repression strength came out at 0.311.

For the origin of these results see a collection of fitness landscapes (doi:10.1038/s41467-024-54723-y).
